# Reference: the supplement of paper PMC3334620
# Over roughly 33,000 sequences, “E-score (-0.5 to 0.5)” has its median near -0.053; the highest 2% begin near 0.37. The list shows a part of the results.
# Biological target: Hap1 (UniProt P0CE41)
# Assay: PBM E-score (8-mer binding enrichment) (E-score (-0.5 to 0.5)); higher = stronger / more preferred TF binding; most listed sequences are background and not binding sites
# Conditions: protein concentration: 200 nM; construct: GST-DNA-binding domain
# In short: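 Universal all-10-mer Agilent arrays, double-stranded by primer extension on fresh or once-stripped slides, were probed with about 100-200 nM GST-tagged yeast transcription factors made by PURExpress. Fluorescent anti-GST detected bound protein, and masliner normalised the scans. E-scores from the Universal PBM Analysis Suite were given to each ungapped eight-base word pooled with its reverse complement.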
# UniProt P0CE41, sequence (P0CE41 whole entry): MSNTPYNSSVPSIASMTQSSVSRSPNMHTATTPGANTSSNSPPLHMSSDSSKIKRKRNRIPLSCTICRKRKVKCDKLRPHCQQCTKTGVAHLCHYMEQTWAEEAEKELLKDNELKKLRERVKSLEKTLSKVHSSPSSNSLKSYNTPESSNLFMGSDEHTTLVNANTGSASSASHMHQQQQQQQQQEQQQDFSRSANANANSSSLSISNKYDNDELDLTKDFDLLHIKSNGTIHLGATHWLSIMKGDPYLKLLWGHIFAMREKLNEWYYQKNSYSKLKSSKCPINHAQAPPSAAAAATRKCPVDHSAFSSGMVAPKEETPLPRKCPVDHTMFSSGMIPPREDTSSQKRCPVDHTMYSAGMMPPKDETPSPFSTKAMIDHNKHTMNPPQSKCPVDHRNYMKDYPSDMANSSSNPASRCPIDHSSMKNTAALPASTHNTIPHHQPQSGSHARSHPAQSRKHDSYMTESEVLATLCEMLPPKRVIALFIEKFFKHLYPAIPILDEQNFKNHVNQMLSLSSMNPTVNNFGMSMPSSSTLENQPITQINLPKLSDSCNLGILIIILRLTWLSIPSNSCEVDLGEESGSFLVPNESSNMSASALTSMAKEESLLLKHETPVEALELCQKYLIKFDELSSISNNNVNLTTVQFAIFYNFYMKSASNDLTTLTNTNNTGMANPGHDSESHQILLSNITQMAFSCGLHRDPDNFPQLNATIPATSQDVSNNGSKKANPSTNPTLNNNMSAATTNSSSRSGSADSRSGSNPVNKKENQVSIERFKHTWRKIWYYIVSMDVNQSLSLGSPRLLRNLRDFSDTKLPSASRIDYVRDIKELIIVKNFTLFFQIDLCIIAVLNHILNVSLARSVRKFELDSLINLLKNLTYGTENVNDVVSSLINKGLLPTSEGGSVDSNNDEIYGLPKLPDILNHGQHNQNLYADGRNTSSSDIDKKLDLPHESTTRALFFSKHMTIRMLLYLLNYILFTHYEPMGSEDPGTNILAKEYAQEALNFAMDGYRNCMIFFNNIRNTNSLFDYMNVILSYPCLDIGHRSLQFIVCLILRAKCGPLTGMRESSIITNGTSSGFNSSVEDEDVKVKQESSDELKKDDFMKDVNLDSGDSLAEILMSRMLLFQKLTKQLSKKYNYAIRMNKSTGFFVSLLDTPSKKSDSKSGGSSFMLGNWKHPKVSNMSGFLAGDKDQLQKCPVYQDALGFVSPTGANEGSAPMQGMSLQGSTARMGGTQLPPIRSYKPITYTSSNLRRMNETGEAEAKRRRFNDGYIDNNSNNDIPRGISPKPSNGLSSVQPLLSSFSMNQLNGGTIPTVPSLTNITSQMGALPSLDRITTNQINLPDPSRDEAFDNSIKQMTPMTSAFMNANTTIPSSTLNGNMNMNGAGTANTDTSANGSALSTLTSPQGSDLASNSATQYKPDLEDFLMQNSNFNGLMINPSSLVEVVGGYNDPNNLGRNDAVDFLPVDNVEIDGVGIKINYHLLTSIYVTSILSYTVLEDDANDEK
row,Sequence,PBM E-score
1,TCGCCGCA,0.206
2,ACTAGTGG,-0.0848
3,AGTCTGTC,-0.23
4,ATACGTTG,-0.24
5,CGCATCAC,-0.0968
6,ATCTCGCC,0.0687
7,TCCGGCCA,0.354
8,AAAGATCT,-0.166
9,TACTTATA,-0.12
10,CATGTCGA,-0.113
11,TAATTTGA,-0.145
12,AAACCTTT,0.0857
13,CCAGTTCC,0.127
14,TATAGCCA,-0.106
15,CGGCGGCA,0.231
16,CGGCAGTC,0.0246
17,TCAGTCCA,-0.357
18,CTTTGAAA,-0.237
19,GCTGTCCA,-0.0659
20,AACCAATT,-0.0914
21,AAGCTAGT,-0.0846
22,CGTCAAAC,-0.0497
23,AACCGCTA,0.0737

row,Sequence,PBM E-score
1,ATCAATAA,-0.0144
2,CGCTGCGC,0.00087
3,AAGTCGAA,-0.189
4,AACTAGAT,0.0194
5,GACGGCGC,0.0831
6,AGCGCAAA,-0.0067
7,GAACATCC,0.23
8,CCCATACC,-0.0126
9,CTGTACCA,-0.279
10,AATGCTGC,-0.12
11,CACGCGTA,-0.0404
12,ATGACGTG,-0.182
13,GACCACGA,-0.159
14,ACGAAGCC,0.00312
15,TCTATGCA,-0.32
16,ACACTAAG,-0.214
17,GTGCTAGA,-0.244
18,GGAAAAAC,0.0691
19,GGCATTCA,-0.0145
20,GCAGTGAC,-0.101
21,ATCTGGAA,-0.11
22,CCGTACAC,0.0113
23,CAAGGGGG,-0.244

row,Sequence,PBM E-score
1,GCCACGCA,-0.184
2,AAGTGTGA,-0.292
3,CGTCCTAC,-0.0358
4,TCCTTACA,-0.00686
5,AGACCAGG,-0.00335
6,ATAGTAAT,0.0781
7,AGTTACAA,0.0599
8,CGCAGCCC,-0.00814
9,GGCCGACA,0.383
10,GGACAGCC,0.206
11,AGCGGCCG,0.325
12,CGGCTTCC,0.133
13,AACCCTCA,-0.135
14,GCGCTAGC,-0.101
15,CACATTGG,-0.108
16,ATCAATCA,-0.0368
17,CGGCTGAA,0.183
18,ATCTGGAG,0.0635
19,TAGGTTGA,-0.103
20,CCGTGTGC,0.254
21,GCAAGACC,-0.0761
22,CCTTCGGC,0.27
23,CAGGTTGC,-0.0853

row,Sequence,PBM E-score
1,GGCCACCC,0.122
2,CCGGCTAG,0.223
3,GGGAGAAA,0.0441
4,GTGTATTA,0.0196
5,AGTGCACT,-0.0451
6,ACTGAACT,-0.12
7,AGGCTGCA,-0.28
8,GACCTATA,0.0889
9,GGCGCCCC,0.095
10,CGAGACGA,0.0521
11,ATTAGGCA,-0.0817
12,AGGAATAT,-0.0307
13,CCTATCAC,-0.0184
14,GCTTGCAC,-0.0999
15,AAACCGGC,0.338
16,ACGCTCCT,-0.35
17,CTGTCTCC,0.0431
18,TACAGGTA,-0.149
19,AAATCACT,-0.138
20,TGCTGAAA,-0.0894
21,AGCGCATC,-0.00234
22,CATCGCGG,0.0723
23,ATGCCATG,-0.134

row,Sequence,PBM E-score
1,AACATCTC,-0.029
2,GCTCCAAC,-0.0259
3,GTAACCTA,0.123
4,ACGATCAG,-0.2
5,CTGAGCCA,-0.151
6,TGAAAGCA,-0.141
7,AACGAAAC,-0.164
8,GGCGTCAC,-0.0838
9,GGGCCCTA,-0.0484
10,AAACTTTG,-0.0327
11,ATGTTAAG,-0.0437
12,ACGAGCTA,-0.108
13,GAAATCCC,0.134
14,GGTCTGGA,-0.079
15,AGGATTAC,-0.18
16,ATCGCCAC,0.187
17,CTTCCACA,-0.181
18,CCTAAAAC,-0.0449
19,TACTCATA,-0.204
20,CAGGCGCC,0.0461
21,GCCATAAC,-0.0896
22,AAGCGCAC,0.146
23,CTTGATAC,-0.266

row,Sequence,PBM E-score
1,GAGCACTC,0.0309
2,GGACACCA,-0.0111
3,ACATAGGG,-0.123
4,GCTTTACA,-0.00584
5,CGGATCAG,0.259
6,GATAAACA,0.122
7,ACGGGTAT,0.0846
8,CAACATCG,0.194
9,GGCAACTA,-0.00809
10,GCAAACAA,-0.0796
11,AGTCAAAC,-0.073
12,CTCGTTAA,-0.0743
13,AATTCGGA,0.414
14,CAACGTTG,-0.108
15,GGCGTCCA,-0.0278
16,ATCTTTGC,-0.116
17,ACGTTTAA,-0.141
18,CAACTAAA,-0.0958
19,AACGAGTT,-0.237
20,CCCATTGA,-0.142
21,GCCATCAC,-0.0971
22,ATGTATGA,-0.271
23,GCACTCTA,-0.126

row,Sequence,PBM E-score
1,CGAGGCTA,0.0332
2,CAAGTAAC,-0.221
3,CAACCAGA,-0.154
4,AGCCTTGG,-0.244
5,CCCAGAAG,-0.0844
6,AGAATACT,-0.161
7,AACTAGTA,-0.298
8,AAGTGTCC,0.164
9,GCATGACC,-0.0947
10,GACCGTCA,-0.0568
11,TATGAATA,-0.0221
12,AGTACCTA,-0.186
13,AGTTAACA,0.0988
14,GTAAACAC,0.128
15,CACTTTCA,-0.168
16,ATAGGGCA,-0.197
17,CCATACCG,0.179
18,AACAGCAT,0.00086
19,CCCTCGAA,-0.201
20,GCAACTTA,0.0419
21,ACCACTAC,-0.0906
22,GTGCTAAA,-0.0297
23,CATAGCCG,0.254

row,Sequence,PBM E-score
1,AATGACCA,-0.0277
2,AGTTCGAC,-0.196
3,CGTGCACA,-0.349
4,TCGGAAAA,0.402
5,GCTCCGCA,0.164
6,ATGCATTC,-0.158
7,AGCCAACG,-0.146
8,AGCGAACT,-0.137
9,GACATATC,0.154
10,CAGAACAA,-0.101
11,CCTCGAGC,-0.0451
12,CCAGGGCA,-0.0795
13,CCCAGGAG,-0.243
14,ACGGGATA,0.117
15,ATAAGGTC,0.128
16,AGTACTTA,-0.0868
17,ACCAATAC,-0.107
18,TTAACAAA,0.0395
19,CGATACAA,0.254
20,AGAGAGCA,-0.15
21,CACAAATA,-0.119
22,GCGTCGCA,-0.0356
23,AGGGTGCG,-0.0707

row,Sequence,PBM E-score
1,CGGGTCCA,0.226
2,CCGCGCGG,0.367
3,ACAATACA,-0.0809
4,GCCCGCTA,0.159
5,CGAATTAC,0.15
6,TGATGACA,-0.159
7,TCCCGCGA,0.223
8,ACTTATGC,-0.0713
9,GAGATATC,0.261
10,CGCCGTAG,0.187
11,GGCGAACC,0.0857
12,CAAAACTC,0.131
13,ATGCCACA,-0.175
14,GGAGGTAC,0.126
15,CCCCATTC,0.0138
16,GAAACTGC,-0.0752
17,CGAGTTCC,0.00518
18,TAATCATA,-0.134
19,CCACCAGC,-0.0628
20,GACGCCGA,0.218
21,GCCGGGAC,0.185
22,AGGAGCGG,-0.0364
23,AAGGCCAC,-0.138
